Source: the supplement of paper PMC3724861
Some of the results follow.

system: T1, Caupolican (Caup) homeodomain DNA-binding domain; experiment: PBM E-score (8-mer, recovered from the published 9-mer minima) (E-score (dimensionless, -0.5 to 0.5)); Drosophila protein; higher = stronger relative binding preference, active = 0.31 or more
T1 sequence: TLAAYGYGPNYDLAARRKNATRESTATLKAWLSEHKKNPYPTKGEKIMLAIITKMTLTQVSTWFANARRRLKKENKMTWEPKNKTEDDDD
In short: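 Caup's homeodomain DNA-binding domain (residues 214-303) was produced by in vitro transcription and translation and applied at 100 nM to custom-designed protein binding microarrays. Each value is an enrichment score giving relative binding preference for a short DNA word; higher means stronger. Published 9-mer scores were the minimum of their two constituent 8-mer scores, and the 8-mer values were recovered from those minima. A cutoff of 0.31 marks candidate binding sequences.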

Sequence | PBM E-score
TAACTTCA | inactive: 0.137
AAAGAACA | inactive: 0.269
CTGTTGTA | inactive: 0.273
GGGAGCCC | inactive: -0.256
AACATTTA | inactive: 0.275
AGCCATGA | inactive: 0.00934
AGCGGAAG | inactive: -0.161
AGAGATAT | ≥ 0.084
AGTGAAGA | inactive: -0.0882
AATTTTCC | inactive: 0.0741
GAGTGCAC | inactive: -0.0329
GACAACAA | active: 0.342
GCCGGCGA | inactive: -0.275
CCTATAAA | inactive: -0.0151
CGGGAAAA | inactive: -0.0322
AGCCGTAT | inactive: -0.0406
GACCGGCC | inactive: -0.22
ATTTTGCA | inactive: 0.0959
CCAGTGCC | inactive: -0.15
AAATTAGT | inactive: 0.154
AAAAGCCG | inactive: -0.135
ACGCAGCC | inactive: -0.145
GAGGCAGA | inactive: -0.105
CCCGCCGG | inactive: -0.246
CAATTAAC | inactive: 0.152

Sequence | PBM E-score
ACGTAGTC | inactive: 0.00594
CCGCGCAC | inactive: -0.17
AATCAAAA | inactive: 0.162
CGTGAATC | inactive: 0.0702
GGTCCAGA | inactive: -0.0264
AGGGGTTC | inactive: -0.189
AATTGGCA | inactive: 0.0986
ATCTTGAC | inactive: -0.0426
CCAGTACA | inactive: 0.3
GAACGGTA | inactive: 0.0218
AGGTGGAC | inactive: -0.0643
GTTCCGCA | inactive: 0.069
GCGGCTAC | inactive: -0.0721
CGTCTACC | inactive: -0.0699
ACTGCCTG | inactive: -0.0684
ACGTGAAT | inactive: 0.0518
AACGTACG | inactive: 0.0611
CGCTCACG | inactive: -0.159
AAGTAGAT | inactive: 0.0681
ACGATGCG | ≥ 0.0108
AAACGTCC | inactive: -0.0263
CCGCCCCG | inactive: -0.265
CGTTTTCA | inactive: 0.0134
GTGTTCGA | inactive: 0.236
GCGAGCAC | inactive: -0.0716

Sequence | PBM E-score
GCTCAAAC | inactive: 0.0081
ATTATGAA | inactive: 0.169
AGTCGCAT | inactive: 0.0361
GCTTCACA | inactive: -0.019
AATCTCAG | inactive: 0.0346
ACTTCTTG | inactive: 0.0436
CTGGTGGC | inactive: -0.213
CGCTAGTA | inactive: 0.0576
GATGTCGC | inactive: 0.201
CTCATACC | inactive: 0.033
GATTGGGA | inactive: -0.00727
CAATGATA | inactive: 0.172
CTGCATAA | inactive: -0.00727
AAAGCCTT | inactive: -0.0862
AGTTCACC | inactive: -0.0061
CGTGATAA | inactive: 0.117
GAGGCCAC | inactive: -0.191
CCTCACAG | inactive: -0.1
GTTTGGTA | inactive: 0.135
ATTCTTCG | inactive: -0.0248
ATCCCTCG | inactive: -0.0432
AGGTAATA | inactive: 0.0994
GTGGCCCA | inactive: -0.233
AGGCCACA | inactive: -0.113
ACTTCATC | inactive: 0.00844

Sequence | PBM E-score
AGGTCGTG | inactive: 0.03
GAAGGTAC | inactive: 0.0158
CAAAAGCC | inactive: -0.114
CGATTGTC | inactive: 0.0794
AATACAGC | inactive: 0.0781
CTGATCGA | inactive: -0.0424
TCCCCAAA | inactive: 0.00712
GACGCCTA | inactive: -0.175
CCAGTGAA | inactive: -0.125
CCGCGGCG | inactive: -0.216
CAAGACCC | inactive: -0.113
AAGACTCG | inactive: 0.0334
CACGCTGA | inactive: -0.0394
CAGCGCAG | inactive: -0.131
CTGGTTTC | inactive: -0.0521
ACCGAACT | inactive: 0.0313
AGCACAAC | inactive: 0.124
AAGAACAC | active: 0.312
AAATTGTG | inactive: 0.136
AAGGCTGA | inactive: -0.0562
GACCCCAC | inactive: -0.234
ACCTGACC | inactive: 0.0317
AAAAACAC | inactive: 0.253
CAGTGCAC | inactive: -0.0496
AGATGCAG | inactive: -0.00012

Sequence | PBM E-score
AATTATCT | inactive: 0.163
CTCTTATA | inactive: 0.0528
TCAATGGA | inactive: 0.00931
GGTCGTGA | inactive: 0.00406
ATACTTTG | inactive: 0.111
GAGAACCC | inactive: -0.153
GTAGCGTA | inactive: -0.0339
CAAGACGA | inactive: 0.0859
CTGGCGGC | inactive: -0.23
ACGTTGAT | ≥ 0.145
AGTGTGCA | inactive: 0.0526
ATGACATA | active: 0.379
CGATGCAA | inactive: -0.0787
CCGACCGG | inactive: -0.168
ATTTGAGC | inactive: 0.00227
ACAGCCCA | ≥ -0.0208
CATAGGTA | inactive: 0.0694
ATCGCTCA | inactive: -0.0123
ATTCGATG | inactive: 0.092
GATTTGCA | inactive: 0.0416
AACTCCTG | inactive: -0.0221
TATCTCAA | ≥ 0.133
AACCGATA | inactive: 0.101
CTTATCCA | inactive: 0.0263
AAAAGATA | inactive: 0.0967

Sequence | PBM E-score
CCATCCCG | inactive: -0.136
ACCATGGC | inactive: 0.0502
GCCTTCGA | inactive: -0.142
GGCAATAC | inactive: -0.0061
CGAGACCG | inactive: -0.0623
AAGCAGAC | inactive: 0.00377
AGTGGAAA | inactive: 0.0405
CCGTGCGA | inactive: -0.037
CTGAAAGA | inactive: -0.0917
TCTAGACA | inactive: 0.208
ACATCTAG | inactive: 0.202
ATCAACAC | inactive: 0.233
CTTCATAC | inactive: 0.0612
AATCAACA | inactive: 0.291
CTTGAGCC | inactive: -0.215
GAGCTCTA | inactive: -0.0532
CGCCTGGA | inactive: -0.154
CTGTCGCC | inactive: -0.0386
GCGAGTCC | inactive: -0.184
ATCGGGCC | inactive: -0.2
GACTCGAA | inactive: -0.102
TAATTCAA | ≥ 0.174
ACGTAAGA | ≥ 0.0887
CGTGGATC | inactive: -0.0533
GATGGCGC | inactive: -0.218

Sequence | PBM E-score
ACTACTAT | inactive: 0.235
GTCACACA | inactive: 0.12
CTGTCAAA | inactive: 0.164
ATAGGCAT | inactive: 0.0359
GCCTTCAC | inactive: -0.12
AGGGGTTA | ≥ -0.0574
AGACCTAC | inactive: -0.00386
CATCTAAG | inactive: -0.0746
TCGATAAA | inactive: 0.043
CACTTTGG | inactive: -0.0554
AGACGGCC | inactive: -0.226
GCGAAAAA | inactive: -0.0202
AAATGGGA | inactive: -0.0126
CAAATTGG | inactive: 0.0392
CAAGATGG | inactive: 0.0306
CCACTGCA | inactive: -0.0769
GGTTTTAA | inactive: 0.0766
AACATGCA | active: 0.392
AGACCCTG | inactive: -0.055
TAATCGAA | inactive: 0.135
CCTAGCTC | inactive: -0.185
CCAACCCG | inactive: -0.183
GGCTTGAA | inactive: -0.103
ACATTAGA | inactive: 0.151
CCTAATAG | inactive: -0.041

Sequence | PBM E-score
CGTTGCAG | inactive: 0.0112
GGTGTGAA | inactive: 0.0932
AATTCGTA | inactive: 0.126
CCTTTGCC | inactive: -0.0643
GAGAGCGA | inactive: -0.106
CACACATG | inactive: 0.192
GTGCTTTA | inactive: 0.0626
CCGGTTGC | inactive: -0.127
AATGGCGA | inactive: -0.0331
ACACCGTG | inactive: 0.154
GACGGCAC | inactive: -0.157
GCAGGATA | inactive: -0.0699
AGTTACAC | inactive: 0.303
CGACATAC | inactive: 0.282
AGTTGGAT | ≥ 0.123
ACCTCCTA | inactive: -0.0429
CAGAATCG | inactive: -0.0244
ATATAGAG | inactive: -0.0179
CCTTAAGA | inactive: -0.0441
GAACAGAA | inactive: 0.125
AAGCGGGT | inactive: -0.147
ATTCCCTC | inactive: -0.0219
CCAATGTA | inactive: 0.226
GCACGACC | inactive: -0.133
CAAGTGTC | inactive: 0.0701

Sequence | PBM E-score
AACCAGAG | inactive: 0.0681
GTAAAGTA | inactive: 0.251
CCGGTTAA | inactive: -0.0662
CGTTACTC | inactive: 0.0391
GGGGAGAA | inactive: -0.195
CGCCCCCC | inactive: -0.418
AGCCGGAC | inactive: -0.0745
CGCAGGTA | inactive: -0.0146
GCCTTCCA | inactive: -0.213
AATTGGCC | inactive: -0.118
ATTTATAC | inactive: 0.135
ACCTAGAA | inactive: 0.08
ACCTTATA | inactive: 0.0314
CCAAACGG | inactive: -0.223
GACCCGAC | inactive: -0.118
TATCATGA | inactive: 0.116
CTACCCAC | inactive: -0.155
AAAGTTTG | inactive: 0.0257
GCTCAGTA | ≥ 0.0973
ACGAGTAA | inactive: 0.12
CTTATAAC | inactive: 0.201
ATACAGCG | inactive: 0.0635
CTCGGCCA | inactive: -0.14
ACACCTGC | inactive: 0.0667
ATGTATTC | inactive: 0.222
